According to the supplement of paper PMC3334620:
Whole data set: some 33,000 sequences, median “E-score (-0.5 to 0.5)” near -0.035, cut for the highest 2% near 0.35. Some of the results follow.

Each sequence was assayed against T1, Pdr3 (UniProt P33200) (assay: PBM E-score (8-mer binding enrichment) (E-score (-0.5 to 0.5)); higher = stronger / more preferred TF binding; most listed sequences are background and not binding sites). Details: protein concentration: 200 nM; construct: GST-full length.
T1 sequence: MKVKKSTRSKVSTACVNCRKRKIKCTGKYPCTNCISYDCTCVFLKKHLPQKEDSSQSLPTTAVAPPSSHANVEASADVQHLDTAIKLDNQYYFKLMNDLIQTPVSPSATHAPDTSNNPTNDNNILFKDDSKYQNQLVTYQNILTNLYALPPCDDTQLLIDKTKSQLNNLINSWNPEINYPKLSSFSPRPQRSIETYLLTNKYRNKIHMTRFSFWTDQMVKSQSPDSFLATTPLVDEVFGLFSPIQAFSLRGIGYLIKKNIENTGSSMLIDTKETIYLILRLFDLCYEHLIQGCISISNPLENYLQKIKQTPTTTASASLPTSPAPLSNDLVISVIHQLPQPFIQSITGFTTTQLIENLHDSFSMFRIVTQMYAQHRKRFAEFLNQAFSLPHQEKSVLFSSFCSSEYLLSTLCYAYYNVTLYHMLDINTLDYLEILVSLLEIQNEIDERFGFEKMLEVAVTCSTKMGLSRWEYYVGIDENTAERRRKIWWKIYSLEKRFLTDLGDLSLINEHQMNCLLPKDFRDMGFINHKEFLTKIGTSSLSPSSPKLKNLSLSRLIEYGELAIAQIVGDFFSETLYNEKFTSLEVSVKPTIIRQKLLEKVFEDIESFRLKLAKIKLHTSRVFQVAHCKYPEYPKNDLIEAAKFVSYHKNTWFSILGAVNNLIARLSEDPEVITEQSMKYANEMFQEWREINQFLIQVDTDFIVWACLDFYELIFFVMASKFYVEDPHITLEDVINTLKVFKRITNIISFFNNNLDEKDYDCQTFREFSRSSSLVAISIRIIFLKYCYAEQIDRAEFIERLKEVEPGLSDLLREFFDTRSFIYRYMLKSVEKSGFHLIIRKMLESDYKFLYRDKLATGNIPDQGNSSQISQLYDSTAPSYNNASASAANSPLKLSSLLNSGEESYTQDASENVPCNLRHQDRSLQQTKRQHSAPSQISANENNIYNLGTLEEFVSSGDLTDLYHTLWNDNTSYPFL
Summary of the method: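 Universal all-10-mer Agilent arrays, double-stranded by primer extension on fresh or once-stripped slides, were probed with about 100-200 nM GST-tagged yeast transcription factors made by PURExpress. Fluorescent anti-GST detected bound protein, and masliner normalised the scans. E-scores from the Universal PBM Analysis Suite were given to each ungapped eight-base word pooled with its reverse complement.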

| Sequence | PBM E-score |
| --- | --- |
| CTACCACA | -0.169 |
| CATGGCGA | 0.0227 |
| ATGTTGGG | -0.0398 |
| CGCCTTGC | -0.0202 |
| TGACGTAA | -0.259 |
| AGGATTTG | -0.138 |
| CTCGTCAG | -0.152 |
| CCGCTCTC | -0.0273 |
| ACATGCCA | -0.0535 |
| AATAATTC | 0.172 |
| ATCCCTGC | -0.0253 |
| ACCCAGAA | 0.00286 |
| AAATTAGG | 0.116 |
| AGGACTAC | -0.244 |
| AAGAGTCC | -0.0543 |
| ATTTAGGA | -0.229 |
| CAGGCACC | -0.221 |
| GCCTCTGA | -0.223 |
| ATAATGAA | 0.00788 |
| AGGAGATA | -0.182 |
| GGGCCGTA | 0.0929 |
| ACGCGGAG | 0.309 |
| CGGTCCCC | 0.0888 |
| GACCAGAC | -0.247 |
| ATAGCAGG | 0.112 |

| Sequence | PBM E-score |
| --- | --- |
| AACTCAGG | -0.175 |
| CGCTGTAG | -0.00377 |
| CGTCTTAG | -0.255 |
| CTAGCCCA | -0.0911 |
| AGTTCAGA | -0.0363 |
| CGCTCACA | -0.072 |
| AGGACCTG | -0.155 |
| ATCAGCTA | -0.105 |
| AGGATGTC | 0.0246 |
| GAAACATA | 0.137 |
| CGATGACA | 0.0038 |
| CTGGCGGA | 0.131 |
| GCGCACTA | 0.101 |
| GCGCGCCC | 0.182 |
| AAGTGAAA | -0.00211 |
| CTACAACA | -0.177 |
| ACTATTGC | 0.0102 |
| ATAGACGA | -0.122 |
| CCATGAAG | -0.0463 |
| CCGCTCAC | 0.0879 |
| ACGTTGGG | -0.226 |
| ATCCTGCC | -0.0489 |
| GCTTACAC | -0.159 |
| GGAACAAC | 0.302 |
| TCAGGAGA | -0.114 |

| Sequence | PBM E-score |
| --- | --- |
| CCGTAACG | -0.00149 |
| GAGGGAAC | 0.134 |
| GAGGTAAA | -0.0806 |
| ACGGTATA | 0.0842 |
| GGAGAGCC | -0.105 |
| AACGTGTC | 0.00256 |
| GTGCGGCA | 0.0901 |
| ACAATAGC | -0.223 |
| CCGTCTGA | 0.0542 |
| CCGTTTGA | 0.116 |
| ACTTAAGA | 0.0238 |
| ACTTCGTC | 0.108 |
| AGTTCCGA | 0.456 |
| GCATTTGA | 0.0456 |
| ACGGGGTA | 0.0571 |
| CCGACTTC | -0.0387 |
| TGCATAAA | -0.00866 |
| GGTTGTCA | -0.0131 |
| AGGACCTC | 0.0211 |
| AAGACTCT | -0.182 |
| GAAACGTA | 0.0307 |
| CCGAGGAC | 0.169 |
| GAACAGCA | -0.057 |
| ACAGTCGT | -0.222 |
| GTGGCGAA | 0.106 |

| Sequence | PBM E-score |
| --- | --- |
| ATGACAAC | 0.0892 |
| AAGCGACT | -0.246 |
| GCTCAACA | -0.118 |
| AAAATTCC | 0.282 |
| CACGAAGC | -0.13 |
| ACTTGCCT | -0.0442 |
| GTTTCCCA | 0.0393 |
| GATGCGAC | 0.161 |
| CGCGGCAC | 0.385 |
| GCAAACCC | -0.0541 |
| GTAAGGGA | -0.0255 |
| AAACGGGT | 0.15 |
| CTTAATCA | 0.0785 |
| AACGTTGC | -0.032 |
| AGCAGCGA | 0.0434 |
| ACGACATA | -0.231 |
| CTAGGACA | -0.0782 |
| ACAATACT | 0.015 |
| AAGCTTCA | 0.0605 |
| CCTATAGG | 0.0201 |
| CACCGCCC | 0.0947 |
| CTTGCTGA | -0.166 |
| CGAGTGTA | -0.0666 |
| CGCGAGTC | -0.0192 |
| ACACGGAT | 0.302 |

| Sequence | PBM E-score |
| --- | --- |
| ATAAGCCA | -0.271 |
| ACAGGTGG | -0.155 |
| CGCCCACA | 0.0211 |
| AGCGTTCG | -0.0672 |
| ATAGGGCG | 0.0728 |
| AGAGCTGC | -0.14 |
| AGTATAGC | -0.13 |
| GATAATCC | 0.189 |
| AAGGTAGC | -0.271 |
| CCTGCACG | -0.0585 |
| ATGCTACA | -0.24 |
| CTATTGAC | -0.153 |
| CGTAAGAA | -0.0798 |
| ACAGTTAC | -0.111 |
| AACCACGC | -0.177 |
| CTATGGTA | -0.00506 |
| ACAATATC | 0.0025 |
| CGGTCGGA | 0.316 |
| GCTCACGA | -0.316 |
| GATTGTCC | 0.101 |
| CCGCCGGA | 0.415 |
| AACCAAGC | -0.145 |
| ATGCTGTC | -0.139 |
| ATGCGTGA | -0.0935 |
| TAAAGGAA | -0.119 |

| Sequence | PBM E-score |
| --- | --- |
| CGTAGACC | -0.149 |
| CGCGTACA | -0.157 |
| AGTGCGTC | -0.195 |
| GACCATAA | -0.131 |
| CCTGAGTC | 0.0204 |
| GAGAACGC | -0.0114 |
| ATGTGCCC | -0.00665 |
| CATTACTC | -0.106 |
| AGGAGCAG | -0.0955 |
| GTAATGAA | -0.1 |
| AAACCATT | -0.226 |
| GCTTAAAC | -0.167 |
| CCGCATAG | 0.137 |
| CTCGCCAA | -0.0834 |
| ACCATGTA | 0.00278 |
| ATTTGGTG | -0.158 |
| ATCACCGG | 0.165 |
| ATTCCGTA | 0.417 |
| CTTTGCTA | -0.191 |
| GCGTTTAC | -0.146 |
| CGCCGTAA | 0.123 |
| AAGTCCCT | -0.267 |
| TCCCCTCA | 0.0964 |
| GGAGAAGA | 0.00088 |
| CCCCCTCC | -0.151 |

| Sequence | PBM E-score |
| --- | --- |
| GTGAGGCA | -0.107 |
| CTAAGGAA | -0.0825 |
| ACACATGG | -0.089 |
| AAACTCGA | -0.0616 |
| CTGCTCGA | -0.176 |
| ACCATATG | -0.267 |
| TAGCCCCA | -0.102 |
| CAGAAGAC | -0.186 |
| CGCGTGCC | 0.15 |
| AGGTCCAG | 0.00919 |
| CAGCATGG | -0.00655 |
| AGGCAGGG | -0.153 |
| AGGAGAGG | -0.208 |
| CAGCGAGC | 0.0361 |
| ATAGGAAT | -0.214 |
| GAAATACC | 0.0501 |
| GAAGCCCC | 0.0575 |
| AGCCCGCC | 0.154 |
| GAACGCTC | -0.099 |
| AGCAATCA | -0.0574 |
| ACGCACCC | -0.0922 |
| CTCTGTAC | -0.0809 |
| ATCAGAAT | 0.0827 |
| CTACGTTC | -0.0566 |
| CTTCATGA | 0.00401 |

| Sequence | PBM E-score |
| --- | --- |
| ATATGACC | -0.0521 |
| CTTACTAC | -0.0454 |
| ATCGCCCC | 0.0454 |
| GGAGGGAC | 0.0402 |
| CAGGACTG | -0.324 |
| CCCCGGAC | 0.33 |
| CACCCGGA | 0.412 |
| CTTACAGC | -0.3 |
| CCACTCAG | -0.0676 |
| CAACGGAG | 0.307 |
| GTCTCCAA | -0.0715 |
| CCGACGTA | 0.0909 |
| GTACTAAA | -0.0395 |
| CCTCCTAC | -0.196 |
| ATTTTTGG | -0.0953 |
| ACTAGTGC | -0.0837 |
| ACACTAAC | -0.0387 |
| CACACCCA | -0.094 |
| CGATAGAC | -0.058 |
| AGGGGACT | -0.156 |
| GTGCGCAA | -0.00317 |
| ACCTTTGG | -0.274 |
| GAGTTAGC | -0.0292 |
| GCCCCGCC | 0.274 |
| CCTTCATA | 0.021 |

| Sequence | PBM E-score |
| --- | --- |
| ACTAACGA | -0.107 |
| CGTCGTGA | -0.105 |
| CAAGAAGC | 0.0573 |
| AGGCCTCA | -0.181 |
| AGTAAACA | 0.015 |
| GTCGTCTA | -0.0331 |
| TCCCTCGA | 0.0376 |
| CGAACGCG | 0.216 |
| GCAACTAA | 0.183 |
| CGTTTCGC | -0.0217 |
| TTGATCAA | 0.13 |
| ACGGACGA | 0.304 |
| CAGTAACA | -0.14 |
| CCAAGCCC | -0.152 |
| GTTGCGGA | 0.236 |
| TACAACCA | -0.00338 |
| CTTTTATA | -0.314 |
| ACGAATCC | 0.066 |
| AGCTCTCC | 0.0331 |
